Measured values reported in PubChem BioAssay AID488969 (Vanderbilt High Throughput Screening Facility, 2010).
In all, about 110,000 compounds were measured (“z-score”: median about -0.1, highest 2% from about 2 on). The list shows a part of the results. Active and inactive are the calls of the source.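 The calls were made as follows: active = z-score in the third read window above 3 or below -3; inactive = the rest.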

Molecular target: Metabotropic glutamate receptor 8 (Rattus norvegicus) (UniProt P70579)
Chain of UniProt P70579 (P70579 whole entry, looked up): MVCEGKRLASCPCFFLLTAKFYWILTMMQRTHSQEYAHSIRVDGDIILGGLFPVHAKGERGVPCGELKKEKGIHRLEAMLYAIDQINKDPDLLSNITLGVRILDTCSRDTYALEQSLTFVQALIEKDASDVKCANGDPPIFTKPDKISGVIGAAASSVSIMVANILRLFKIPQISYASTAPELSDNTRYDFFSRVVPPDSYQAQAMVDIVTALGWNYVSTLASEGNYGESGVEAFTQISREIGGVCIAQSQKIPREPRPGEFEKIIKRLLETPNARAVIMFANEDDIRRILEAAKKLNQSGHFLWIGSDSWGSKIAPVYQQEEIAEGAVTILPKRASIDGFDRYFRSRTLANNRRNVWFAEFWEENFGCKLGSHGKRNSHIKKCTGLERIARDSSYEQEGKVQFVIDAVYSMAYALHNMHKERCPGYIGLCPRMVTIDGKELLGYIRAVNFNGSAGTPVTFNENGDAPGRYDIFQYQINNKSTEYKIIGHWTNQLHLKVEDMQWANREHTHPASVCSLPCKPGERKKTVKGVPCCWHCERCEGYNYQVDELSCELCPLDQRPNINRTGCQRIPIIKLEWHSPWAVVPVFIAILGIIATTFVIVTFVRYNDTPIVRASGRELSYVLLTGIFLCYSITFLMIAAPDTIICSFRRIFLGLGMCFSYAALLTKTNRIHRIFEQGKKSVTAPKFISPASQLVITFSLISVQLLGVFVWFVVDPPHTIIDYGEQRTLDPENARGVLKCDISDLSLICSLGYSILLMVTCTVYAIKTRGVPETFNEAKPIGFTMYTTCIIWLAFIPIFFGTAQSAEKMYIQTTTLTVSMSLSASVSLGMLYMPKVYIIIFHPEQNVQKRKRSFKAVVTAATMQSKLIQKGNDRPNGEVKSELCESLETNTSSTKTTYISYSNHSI
Assay: rat mGluR8 modulators via GIRK flux, primary screen, cell-based, thallium flux, HTS (AID 488969)
Conditions: HEK293 rat mGluR8, GIRK (G protein-gated inwardly rectifying potassium channel) thallium flux, FluoZin2; at 10 µM; stronger effect = higher value

| Structure (SMILES) | z-score |
| --- | --- |
| CCSc1nnc([C@@H](N)Cc2ccccc2)o1 | -0.177 |
| O=C(C1CC(=O)N(C2CCCCCCC2)C1)N1CCC2(CC1)OCCO2 (stereo not given) | 0.00735 |
| Cc1ccc(C2SCC(=O)Nc3c2c(=O)[nH]n3C2CCOC(C)(C)C2)cc1 (stereo not given) | 0.0997 |
| CCN1CCC2(CC1)NC(CO)(CO)CO2 | -0.359 |
| COc1ccc(CCNCc2ccc(OC)c(OC)c2OC)cc1 | 1.08 |
| C=CCn1c(O)c(C(C)=NCCCN2CCOCC2)c(=O)[nH]c1=O | 0.131 |
| O=C(Nc1ccc(Cl)cc1C(=O)c1ccccc1)c1ccccc1 | -0.198 |
| O=C(C(Cc1ccccc1)NS(=O)(=O)c1ccc(F)cc1)N1CCC2(CC1)OCCO2 (stereo not given) | -0.216 |
| COCCCNC(=O)c1c(NC(=O)c2ccco2)n(Cc2ccccc2)c2nc3ccccc3nc12 | -1.51 |
| O=C1C2(c3ccccc3)CN3CN(C2)CC1(c1ccccc1)C3 | -0.161 |
| CCCCn1c(N)c(C(=O)NCc2cccs2)c2nc3ccccc3nc21 | -0.414 |
| CNC(=O)Oc1ccc(-c2cn3cc(C)ccc3n2)cc1 | -0.0606 |
| CCN(CC)c1ccc(N=Cc2c(O)n(Cc3ccccc3)c(=O)[nH]c2=O)cc1 | 0.207 |
| Nc1c(C(=O)NCc2ccco2)c2nc3ccccc3nc2n1Cc1ccc(F)cc1 | -0.108 |
| O=C(COc1ccc2ccccc2c1)N1CCN(C2CCN(Cc3ccccc3)CC2)CC1 | 1.81 |
| CCOP(=O)(OCC)C(O)c1ccc(OC)c(OC)c1 (stereo not given) | -0.178 |
| N=c1n(CCO)c2ccccc2n1Cc1ccccc1 | -0.122 |
| OCCOCC#CCN1CCOCC1 | 0.86 |
| c1cc2c(cc1CCNC1CCCCCC1)OCO2 | 0.232 |
| CCN(CC)c1ccc(N=Cc2c(O)n(-c3ccc(Cl)cc3)c(=O)[nH]c2=O)cc1 | 0.126 |
| CCCCn1c(O)c(C(CC)=NCCN2CCOCC2)c(=O)[nH]c1=O | 0.0562 |
| CN1CCC(O)(c2ccccc2)C2CCCC21 (stereo not given) | 0.541 |
| COc1ccc(CC(=O)N2CCN(C)CC2)cc1OC | 0.142 |
| CCC(C)(C)n1nnnc1C(c1cccs1)N1CC=C(c2ccc(F)cc2)CC1 (stereo not given) | 0.138 |

| Structure (SMILES) | z-score |
| --- | --- |
| CC(=O)CC(C)(C)n1c[n+](C)nn1 | -0.0491 |
| Clc1ccc2c(c1)C(c1ccccc1Cl)=NCc1nnc(N3CCN(CCSc4ccccc4)CC3)n1-2 | -0.487 |
| C=CCn1c(O)c(/C=C2/C=CC=N2)c(=O)[nH]c1=O | -0.219 |
| O=C(Cn1cnc2sc3c(c2c1=O)CCCC3)NCCCC(=O)N1CCC2(CC1)OCCO2 | 0.113 |
| Cc1cccc(C)c1NC(=O)CN(C)CC(=O)Nc1ccc(C#N)c(Cl)c1 | -0.248 |
| Cc1cc(C)cc(N2C(=O)NC(=O)/C(=C\C=C\c3ccco3)C2=O)c1 | -1.06 |
| OC(Cc1ccccc1)(c1ccccc1)C1CN2CCC1CC2 (stereo not given) | 2 |
| O=P(C(Cl)Cl)(N1CCCCC1)N1CCCCC1 | 0.344 |
| CN(C)c1nc(OCCNC(=O)COc2ccc(Cl)cc2Cl)nc(N2CCCCC2)n1 | 1.08 |
| O=c1[nH]c(=S)n(CCC2=CCCCC2)c(O)c1C=NCc1cccnc1 | 0.0432 |
| CCOC(=O)c1c(NC(NC(=O)CF)C(Cl)(Cl)Cl)sc2c1CCCC2 (stereo not given) | -0.0969 |
| CCOC(=O)C1=C(C)OC(N)=C(C(=O)OCC)[C@@]12C(=O)N(CC(N)=O)c1ccccc12 | 0.472 |
| O=C(O)c1cccc2c1NC(C(=O)O)C1CC(Sc3ccccc3[N+](=O)[O-])C(Cl)C21 (stereo not given) | -0.939 |
| CC12CN3CC(C)(CN(C1)C3c1cccs1)C2 (stereo not given) | -0.401 |
| O=c1c2ccccc2nc(CN2CCCCCC2)n1-c1ccc(F)cc1 | 0.546 |
| Cc1ccc(C(O)(C(=O)NNC(=O)CN2CCN(C)CC2)c2ccc(C)cc2)cc1 | -0.00637 |
| CC(C)NS(=O)(=O)c1ccc(OCC(=O)N2CCN(Cc3ccccc3)CC2)c(Cl)c1 | 0.201 |
| CCOC(=O)c1c(C)n(Cc2ccco2)c2ccc(O)cc12 | -0.0474 |
| OC1(c2ccc(F)cc2)CCNC1 (stereo not given) | 0.138 |
| O=c1[nH]c(=S)n(Cc2ccc(F)cc2)c(O)c1C=NCC1CCCO1 (stereo not given) | -0.258 |
| O=C(O)C1(c2ccc(Cl)cc2)CCC1 | -0.279 |
| C=CCOC(=O)COc1cc(C)cc2oc(=O)c3c(c12)CCC3 | active: -4.07 |
| O=Cc1cn(Cc2cccc(F)c2)c2ccccc12 | 1.17 |
| COCCCn1c(N)c(C(=O)Nc2sc3c(c2C(=O)OC)CCCC3)c2nc3ccccc3nc21 | -0.287 |

| Structure (SMILES) | z-score |
| --- | --- |
| CC/C(=C\C=C\[C@@H]1C=C[C@@H]2CCC[C@H]2[C@@H]1C(=O)c1ccc[nH]1)[C@@H]1O[C@@H]([C@@H](C)C(=O)O)CC[C@@H]1C | 1.6 |
| CN1CCN(c2cc(N3CCNCC3)ccc2[N+](=O)[O-])CC1 | -0.802 |
| O=C1NC(=O)C(Cc2cccs2)C(=O)N1 | 0.09 |
| CC1CC(C)CN(CC(=O)c2ccc(OC(F)F)cc2)C1 (stereo not given) | -0.25 |
| N#Cc1c(Cl)nc(Cl)c2c1CCN(Cc1ccccc1)C2 | -0.608 |
| Cc1cccc(N2C(=O)NC(=O)/C(=C\c3cnn(-c4ccccc4)c3)C2=O)c1 | -0.3 |
| COc1ccc2c(CCN)c[nH]c2c1 | -0.139 |
| O=C(CSC1c2ccccc2-c2ccccc21)N/N=C/c1ccccc1O | -0.226 |
| CC1(C)COC(Nc2ccc(Cl)cc2)=N1 | -0.195 |
| CCOC(=O)C1=C(C)OC(N)=C(C(=O)OC)C12C(=O)Nc1ccc(Br)cc12 (stereo not given) | -0.318 |
| CC(C)Cc1[nH]c(=O)c(C#N)c2c1CCC2 | 1.1 |
| O=C(Nc1ccc2c(c1)OCO2)c1cn(Cc2ccc(F)cc2)nn1 | -0.577 |
| CC(NCc1ccc(Cl)c(Cl)c1)C(O)c1ccccc1 (stereo not given) | 1.65 |
| CC1CCN(C(=O)c2ccc(N3CC4CC(C3)c3cccc(=O)n3C4)c([N+](=O)[O-])c2)CC1 (stereo not given) | -0.501 |
| Cc1cccc(C)c1NC1=NCCCS1 | -1.27 |
| CN1CCN(C(=O)COc2ccc(S(=O)(=O)N(C)Cc3ccccc3)cc2)CC1 | 0.392 |
| O=[N+]([O-])c1ccc(C2[C@H]3C(c4ccccc4)=NC4(CCCCC4)N23)cc1 (stereo not given in full) | -0.0546 |
| COCCNC(=O)c1c(N)n(Cc2ccco2)c2nc3ccccc3nc12 | -0.7 |
| CC(=O)Nc1ccccc1C(=O)OCC(=O)c1ccccc1Cl | -0.431 |
| COC(=O)C1=C(N)Oc2c(c(=O)oc3ccccc23)C1c1cccnc1 (stereo not given) | -2.14 |
| COc1ccc(N2C(=O)NC(=O)/C(=C/c3cccc(OC(=O)c4cccs4)c3)C2=O)cc1Cl | 1.22 |
| Cc1ccc(C(=O)C2CN(C)CC2C(=O)c2ccc(C)cc2)cc1 (stereo not given) | -0.285 |
